Assay results as given in US20060281090A1 (University of Washington, published 2006).

Biological target: T1, bovine serum albumin (bovine, UniProt P02769)
T1 construct: Control protein in the cross-linking assay with FIX; also called BSA
Assay: BS3 protein cross-linking, Western blot with anti-FIX rabbit polyclonal antibodies

B1: recombinant human coagulation factor IX (enzyme)
chain: not shown
notes: also called FIX; human FIX
  binding result: no binding (tested: 5, 10, or 20 µg BSA with 10 µg FIX)
